# PubChem BioAssay AID894 (National Center for Advancing Translational Sciences (NCATS), 2007)
# Among all 150,000 compounds or so, about 6,500 (4.3%) were called active. Inconclusive means that the source gave no clear call. Such entries were picked first, then a sample of the others. The call rests on the fitted dose curve; in most records, active means well fitted inhibition curve with a large enough effect (not every such curve was filed as active); inconclusive means small, poorly fitted or top-dose-only effect, or another doubt; inactive means no such curve, though single readings can be large or run the other way. Potencies of inconclusive entries are left out as doubtful fits.
# Molecular target: 15-hydroxyprostaglandin dehydrogenase [NAD(+)] (Homo sapiens) (UniProt P15428)
# Chain of UniProt P15428 (P15428 whole entry, looked up): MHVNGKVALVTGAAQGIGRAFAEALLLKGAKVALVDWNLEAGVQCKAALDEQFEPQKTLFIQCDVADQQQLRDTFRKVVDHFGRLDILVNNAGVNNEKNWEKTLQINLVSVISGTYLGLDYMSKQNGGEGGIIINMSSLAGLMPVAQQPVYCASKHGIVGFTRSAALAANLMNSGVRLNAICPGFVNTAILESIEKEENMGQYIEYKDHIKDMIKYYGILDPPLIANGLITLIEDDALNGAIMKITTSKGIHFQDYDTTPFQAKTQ
# Assay: qHTS Assay for Inhibitors of HPGD (15-Hydroxyprostaglandin Dehydrogenase)
# Settings: purified HPGD, NADH fluorescence kinetic, PGE2 substrate; activity change, negative = inhibition: stronger effect = lower value
# Outline: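 NADH formation kinetics: reaction with 30 uM PGE2 and 1 mM NAD+ (final), 20 nM enzyme, Tris-HCl pH 8 with Tween 20, after 15 min compound preincubation at room temperature. Fluorescence change, last versus first of five reads.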
# On the % scale 0 is the no-effect control and ±100 the full control effect; potency means the concentration at half of the fitted maximal effect; tags describe the fitted curve by direction and shape.
Compound,Potency,"activity change, negative = inhibition"
NC(=O)c1c(N)sc2c1CCCC2,active: 31.6 µM,
N#CC1=C2SCN(Cc3ccccc3)CN2C(=O)CC1c1ccc2c(c1)OCO2 (centres undefined),active: 25.1 µM,
O=C(NCC1CCCO1)c1cccc(Br)c1 (centres undefined),active: 25.1 µM,
O=C(c1ccco1)n1c(=S)nc2ccccn21,active: 11.2 µM,
O=C(Nc1ccc2c(c1)oc1ccccc12)c1ccc2c(c1)OCO2,"inconclusive [inhibitor, single point]",
O=C(COC(=O)c1ccc2[nH]c3c(c2c1)CCCC3)Nc1ccc(Cl)cc1Cl,"inconclusive [inhibitor, single point]",
COC(=O)CSc1nc(-c2ccccc2)c2c(c1C#N)CCCC2,"inconclusive [inhibitor, partial curve]",
CN(Cc1ccccc1)S(=O)(=O)c1cccc2cccnc12,active: 22.4 µM,
Cc1cc(=O)oc(C)c1C(=O)OCC(=O)c1ccccc1,"inconclusive [inhibitor, partial curve]",
Cc1ccc2nc(/C=C/c3cccc(F)c3)ccc2c1,"inconclusive [inhibitor, single point]",
Cc1cn2c(nc(=O)c3cccnc32)s1,"inconclusive [inhibitor, partial curve]",
CCN(CC)C(=S)Nc1cc(C(=O)OC)ccc1C(=O)OC,,inactive: -25.1%
COc1ccc(C2CC(c3ccc(Cl)cc3)n3nc(N)nc3N2)cc1 (centres undefined),,inactive: -2.28%
Cc1ccc(/C=C/C(=O)Nc2ccncc2)o1,"inconclusive [inhibitor, single point]",
COc1ccc(-c2cc(C(F)F)n3ncc(C(=O)n4ccnc4C)c3n2)cc1,"inconclusive [inhibitor, full curve]",
CCCCN(CC)C(=O)c1cccc(Cl)c1,"inconclusive [inhibitor, partial curve]",
O=C(NCC(c1ccco1)N1CCN(c2ccccc2F)CC1)OCc1ccccc1 (centres undefined),,inactive: -9.27%
CCc1ccc(Nc2nnc(SCc3cc(=O)n4ccsc4n3)s2)cc1,active: 20 µM,
COCc1cc(=O)n2[nH]c(-c3ccccc3)cc2n1,"inconclusive [inhibitor, partial curve]",
Clc1cc(Cl)c2nc(N3CCCCC3)sc2c1,active: 22.4 µM,
O=c1[nH]c(SCc2nc3ccccc3c(=O)n2-c2ccccc2)nc2ccccc12,"inconclusive [inhibitor, partial curve]",
CCOC(=O)c1cc2c(nc1N)CC(C)(CC)OC2 (centres undefined),"inconclusive [inhibitor, partial curve]",
CC(C)N1CC=C2C(C#N)=C(N)C(C#N)(C#N)[C@H](c3ccoc3)[C@H]2C1,"inconclusive [inhibitor, partial curve]",
N#Cc1c(N)sc(=S)c2c1CCCC2,,inactive: -11.2%
Cc1cc(C)c2nc(SCC(=O)N3CC(=O)Nc4ccccc43)c(C#N)cc2c1,"inconclusive [inhibitor, partial curve, poor fit]",

Compound,Potency,"activity change, negative = inhibition"
Cc1ccc2cc(CN(Cc3ccc4c(c3)OCO4)Cc3nnnn3Cc3ccco3)c(=O)[nH]c2c1,,inactive: -27.7%
COc1ccc(-c2nnc(-c3cccnc3)o2)cc1,"inconclusive [inhibitor, partial curve]",
CC1Cn2c(nnc2-c2cccc(Cl)c2)S1 (centres undefined),,inactive: -28.8%
CCc1ccc(Nc2ccc(C(N)=O)cc2[N+](=O)[O-])cc1,,inactive: -15.1%
O=c1cc(CSc2nnc(-c3cccs3)n2Cc2ccccc2)nc2sc3ccccc3n12,,inactive: -6.49%
CC(=O)NC1C(=O)N(CCc2ccccc2)c2ccccc21 (centres undefined),,inactive: -2.89%
CN(C)c1ccc(-c2nnn(CC(=O)Nc3ccccc3N3CCOCC3)n2)cc1,"inconclusive [inhibitor, partial curve]",
Cc1cc(-c2n[nH]c(=S)n2/N=C/c2cccs2)n[nH]1,"inconclusive [inhibitor, single point]",
Cc1cc(C)c(C)c(N=Nc2nc3ccccc3n2C)c1C,,inactive: -13.9%
Cc1cnc(C(=O)Nc2cccc(-c3nnc4n3CCCCC4)c2)cn1,active: 12.6 µM,
CCOc1ccccc1-c1ccc(C(=O)O)o1,"inconclusive [inhibitor, partial curve]",
Nc1c(C(=O)NCc2ccccc2)c2nc3ccccc3nc2n1CCCN1CCOCC1,"inconclusive [inhibitor, partial curve]",
O=C(Oc1ccc(Cl)cc1)c1ccc(N2CCOCC2)c([N+](=O)[O-])c1,,inactive: -18.2%
Cc1ccc(-n2nc(C)c3c(C)c(CCC(=O)NC(C)c4ccccc4)c(C)nc32)cc1 (centres undefined),"inconclusive [inhibitor, partial curve]",
Cc1cc(C)c(COc2ccc(/C=N/n3c(C)n[nH]c3=S)cc2)c(C)c1,active: 10 µM,
COc1ccccc1/C=N/NC1=NCCCCC1,"inconclusive [inhibitor, single point]",
Cc1ccc(SCc2cn3cccnc3n2)cc1,"inconclusive [inhibitor, single point]",
Cc1cc(C)nc(N(C#N)Cc2ccccc2Cl)n1,,inactive: -2.76%
O=C(CC(=O)c1ccccc1)c1ccccc1,"inconclusive [inhibitor, single point]",
COc1ccc(F)cc1CN1CCN(c2cc(C)nc3c4c(C)cc(C)nc4nn23)CC1,"inconclusive [inhibitor, partial curve]",
CCOC(=O)NC(Nc1ccc(C)cn1)(C(F)(F)F)C(F)(F)F,"inconclusive [inhibitor, partial curve]",
Cc1cccc(N(CC(N)=O)C2SC(=O)NC2=O)c1 (centres undefined),,inactive: -11%
Cn1c2ccc(F)cc2c2ncn(CCN3CCOCC3)c(=O)c21,"inconclusive [inhibitor, partial curve]",
CC(C)OC(=O)C1C2C=CC3(CN(C(C)c4ccc(Br)cc4)C(=O)C13)O2 (centres undefined),,inactive: -9.1%
O=C(CCNc1cccc(Cl)c1)c1ccco1,,inactive: -7.02%

Compound,Potency,"activity change, negative = inhibition"
COc1ccc2nc(C)cc(C(=O)O)c2c1,"inconclusive [inhibitor, partial curve]",
O=C(NCCSc1c[nH]c2ccccc12)c1ccc(Br)o1,active: 7.08 µM,
CN(C)c1ccc(C(=O)OCC(=O)c2cccs2)cc1,,inactive: -11.3%
CCC(=O)NC(=S)Nc1ccc(NC(=O)c2ccco2)c(OC)c1,"inconclusive [inhibitor, partial curve]",
COC(=O)NNC(=O)c1ccc(C)c(Br)c1,,inactive: -22.6%
S=C(Nc1ccccc1)Nc1ccccc1C#Cc1ccccc1,"inconclusive [inhibitor, single point]",
O=C(O)CN(CC(=O)O)Cc1cc2c(-c3ccccc3C(=O)O)c3cc(CN(CC(=O)O)CC(=O)O)c(=O)cc-3oc2cc1O,"inconclusive [inhibitor, partial curve]",
CC(=O)NC(Cc1ccc(C(C)C)cc1)C(=O)NC1CCN(c2nc(C)cc(C)n2)CC1 (centres undefined),,inactive: -13.8%
COc1ccc(CCNC(=O)CSc2nc(-c3ccc(OC)c(OC)c3)ccc2C#N)cc1,"inconclusive [inhibitor, partial curve]",
Cc1ccc(C)c(NC(=S)NNC(=O)c2csc3c2CCCC3)c1,,inactive: -10.8%
CSc1nc2nccc(-c3ccc(-c4ccccc4)cc3)n2n1,"inconclusive [inhibitor, partial curve]",
O=C1/C(=C\c2ccccn2)SC(=S)N1Nc1ncc(C(F)(F)F)cc1Cl,active: 31.6 µM,
CC(C)CN1CCC2(CC1)CCN(C(=O)c1cccn1C)CC2,,inactive: -6.14%
CC1CN(C(=O)C(C)Sc2nc3ccccc3s2)CC(C)O1 (centres undefined),active: 28.2 µM,
COc1ccc([N+](=O)[O-])cc1NC(=O)CSc1ccccc1,"inconclusive [inhibitor, single point]",
COC(=O)c1ccc(C(=O)OC)c(NC(=S)N2CC(C)CC(C)C2)c1 (centres undefined),"inconclusive [inhibitor, single point]",
CN(CCOc1ccc(CC2SC(=O)NC2=O)cc1)c1ccccn1 (centres undefined),"inconclusive [inhibitor, partial curve]",
COc1ccc(C(=O)Nc2oc(-c3ccccc3)c(-c3ccccc3)c2C#N)cc1,"inconclusive [inhibitor, single point]",
COc1ccc(C(=O)NC(=S)Nc2cc3oc4ccccc4c3cc2OC)cc1,,inactive: -8.83%
O=C(CSc1nc2c(cnn2-c2ccccc2)c(=O)[nH]1)N1N=C(c2cccs2)CC1c1ccc(F)cc1 (centres undefined),"inconclusive [inhibitor, partial curve]",
CCOC(=O)c1ccc(N2NC(=O)/C(=C/c3ccc(OC(=O)c4ccco4)c(OC)c3)C2=O)cc1,active: 12.6 µM,
CCOC(=O)c1sc2nc(N3CCOCC3)c3c(c2c1N)CC(C)(C)N(C)C3,"inconclusive [inhibitor, partial curve]",
Cc1ccc(C)c2nc(SCC(=O)NCc3cccs3)c(C#N)cc12,"inconclusive [inhibitor, partial curve]",
Cc1cccc(C)c1OC(=O)CSc1nnc(-c2ccccc2O)o1,"inconclusive [inhibitor, partial curve]",
